The source gives no read counts; variants with many changes may rest on few reads.
B1: CPEB3 Ribozyme (parent)
chain: UAACAGGGGGCCACAGCAGAAGCGUUCACGUCGCAGCCCCUGUCAGAUUCUGGUGAAUCUGCGAAUUCUGCUGUAUAUCUC

Variants of: B1
Assay: self-cleavage, relative activity (ratio to wild type); higher = more cleavage; in vitro, sequencing
Outline: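 Relative activity compares each variant's cleaved/total read fraction with that of the unmutated ribozyme. To get these fractions, barcoded CPEB3 ribozyme libraries from rounds of error-prone PCR were transcribed with T7 RNA polymerase for 5 hours at 37°C and then given 15 min of DNase I treatment before EDTA was added. The RNAs were reverse transcribed with template switching and sequenced on Illumina, and DNA sequencing linked barcodes to variants. A minimum of 5 reads applied, and three batches were averaged.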
With G9A A56U G61A U78C the self-cleavage was 0.05.
In the case of G9A A56U U69C, the self-cleavage is reported as 0.06.
In the case of G9A A57G U60A, the self-cleavage is reported as 0.11.
With G9A A64U U72A the self-cleavage was 0.1.
Variant G9A A64U U72C has a self-cleavage of 0.1.
In the case of G9A A65G C71U U72C, the self-cleavage is reported as 0.12.
With G9A A65G U78C the self-cleavage was 0.15.
G9A C11G G19C U31A A35G A64G A65G showed a self-cleavage of 0.16.
G9A C11G G19C U31A A65G U72A A77U showed a self-cleavage of 0.1.
In the case of G9A C11G G19C U31A A65G U78C, the self-cleavage is reported as 0.02.
G9A C11U A20G A28G A64G showed a self-cleavage of 0.03.
In the case of G9A C12A U25C U60A, the self-cleavage is reported as 0.16.
With G9A C12U A20C G52A U69C U80C the self-cleavage was 0.04.
In the case of G9A C12U C23U, the self-cleavage is reported as 0.18.
With G9A C12U C23U A28G the self-cleavage was 0.05.
Work on G9A C12U C23U U25C A28G U74C yielded a self-cleavage of 0.06.
In the case of G9A C12U U31A U41C U54C U58A, the self-cleavage is reported as 0.07.
With G9A C12U U41C the self-cleavage was 0.39.
For G9A C14A A28G C37U U41C U60A, the self-cleavage was 0.04.
With G9A C14G A21U C23A A47U U67A the self-cleavage was 0.03.
In the case of G9A C14G C23U A47U, the self-cleavage is reported as 0.28.
In the case of G9A C14G C23U A47U U51A U69C, the self-cleavage is reported as 0.04.
In the case of G9A C14U A47G U49C U60A, the self-cleavage is reported as 0.04.
For G9A C14U C44U A64U, the self-cleavage was 0.07.
With G9A C14U U51A C59G A64C A77U the self-cleavage was 0.04.
In the case of G9A C14U U67C, the self-cleavage is reported as 0.12.
For G9A C17A U25C U41A, the self-cleavage was 0.05.
G9A C17U A28U U60C showed a self-cleavage of 0.14.
Variant G9A C17U C29G U48C U58C has a self-cleavage of 0.07.
G9A C17U C29G U78C showed a self-cleavage of 0.13.
With G9A C17U U31A U43G U58C A64U U80A the self-cleavage was 0.04.
G9A C23A G42C U49C U74C U80A gave a self-cleavage of 0.05.
For G9A C27U C32G U54C C62U, the self-cleavage was 0.05.
G9A C29U A35C U41C G70U gave a self-cleavage of 0.05.
G9A C32G A77U gave a self-cleavage of 0.17.
G9A C34U A57G A75U showed a self-cleavage of 0.06.
G9A C34U G42A U51A U54A U58C A65G showed a self-cleavage of 0.03.
Variant G9A C37U U41C C71U has a self-cleavage of 0.07.
G9A C37U U66C U76C gave a self-cleavage of 0.04.
Variant G9A C39U U78C has a self-cleavage of 0.07.
With G9A C40G U43C U66C U78C the self-cleavage was 0.08.
G9A C40U A77C gave a self-cleavage of 0.07.
G9A C40U U54G gave a self-cleavage of 0.07.
For G9A C62U U72A U74A A75C, the self-cleavage was 0.05.
Work on G9A G10A A28G A35G A45U U54A U69C yielded a self-cleavage of 0.05.
G9A G10A C39U showed a self-cleavage of 0.32.
With G9A G10A G30U U49G the self-cleavage was 0.07.
G9A G10U A21G A45C A57G U66C U78C showed a self-cleavage of 0.14.
For G9A G19A A20G U31C U67A U69A U72C, the self-cleavage was 0.03.
In the case of G9A G19C A28G C34A, the self-cleavage is reported as 0.04.
In the case of G9A G19C C40G U54C A77G, the self-cleavage is reported as 0.1.
With G9A G19U G52A the self-cleavage was 0.25.
For G9A G22A U26A A45U A56C, the self-cleavage was 0.06.
G9A G22A U26C U48C showed a self-cleavage of 0.04.
G9A G24A U41A C62A U80C gave a self-cleavage of 0.07.
With G9A G24C G42A the self-cleavage was 0.2.
G9A G30U C40U G42A U80C gave a self-cleavage of 0.34.
In the case of G9A G33C U74C, the self-cleavage is reported as 0.05.
Variant G9A G33U A45G U67A U72A A77G has a self-cleavage of 0.06.
In the case of G9A G36C U54C, the self-cleavage is reported as 0.41.
G9A G53A A56G gave a self-cleavage of 0.07.
With G9A U25A A28G U58C U67C the self-cleavage was 0.11.
G9A U25A U69G U78C showed a self-cleavage of 0.25.
G9A U25C A28C A35U U67C U74A U80C showed a self-cleavage of 0.04.
G9A U25C A35C A65U showed a self-cleavage of 0.1.
For G9A U25C A35G C40U U54A, the self-cleavage was 0.15.
Variant G9A U25C A35U A65G has a self-cleavage of 0.05.
In the case of G9A U25C A45U G53A A56G, the self-cleavage is reported as 0.08.
Variant G9A U25C A57G has a self-cleavage of 0.26.
G9A U25C A64U U66C showed a self-cleavage of 0.06.
Work on G9A U25C G52A yielded a self-cleavage of 0.06.
For G9A U25C U26A U49C, the self-cleavage was 0.04.
Work on G9A U25C U43C U48C U69C U78G yielded a self-cleavage of 0.04.
G9A U25C U48C C50A G53A A56G U69C showed a self-cleavage of 0.09.
Variant G9A U25C U51A C71U U72C has a self-cleavage of 0.22.
Work on G9A U25C U60A U74A yielded a self-cleavage of 0.36.
G9A U25G A35G U41C U58C U67A U72C showed a self-cleavage of 0.05.
For G9A U26A C34G A35U U41A U60C, the self-cleavage was 0.03.
Work on G9A U26A G46A A77G yielded a self-cleavage of 0.04.
Work on G9A U26A G46U A56G U58G A65G yielded a self-cleavage of 0.03.
In the case of G9A U26A G63U, the self-cleavage is reported as 0.32.
G9A U26C A28G U60A gave a self-cleavage of 0.17.
Work on G9A U26C A35U yielded a self-cleavage of 0.19.

From the RNAGym collection of RNA variant scans (doi:10.1093/nar/gkz1192)
